The source of these data is the supplement of paper PMC4967469.

The IC50 is the point on the concentration scale where inhibition reaches its midpoint.

A lower IC50 marks a more sensitive line; fits outside the tested doses are given as limits. AUC sums up the same curve from the lowest dose to the 256-fold higher top dose: 1 means no effect, lower means more sensitive. For some assays here: The top dose, if marked as inferred, was calculated from the reported fits. For some assays here: Where an entry number is given, a second screen of the drug exists; the two often differ. A value given as a limit tells only on which side of the number the result lay.

Assay in all cases: Viability of human cancer cell lines after 72 h of drug (GDSC screen)
Compound in experiment [1]: CC(=O)O[C@@]12CO[C@@H]1C[C@H](O)[C@@]1(C)C(=O)[C@H](O)C3=C(C)[C@@H](OC(=O)[C@H](O)[C@@H](NC(=O)OC(C)(C)C)c4ccccc4)C[C@@](O)([C@@H](OC(=O)c4ccccc4)[C@H]21)C3(C)C [Docetaxel]
The note with it: top dose 0.0125 µM. As for the experimental part: (§1)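 Human cancer cell lines in 384-well plates, medium with 10% serum, drug for 72 h over a 256-fold dose range (nine 2-fold or five 4-fold steps up to the top dose). Adherent lines were fixed and stained with the nucleic acid dye Syto60, suspension lines read with resazurin; signal relative to control wells, capped at 0 and 100%. One two-parameter sigmoid per drug and line, fitted in a mixed model over all curves with the slope shared within a line.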

Compound in experiment [2]: CN1CCN(c2ccc([N+](=O)[O-])c3no[n+]([O-])c23)CC1 [NSC-207895]
The following applies: top dose 20 µM; top dose inferred. How it is done: as §1

Compound in experiment [3]: COC(=O)[C@H](CCSC)NC(=O)c1ccc(NC[C@@H](N)CS)cc1-c1ccccc1 [FTI-277]
The note with it: top dose 1.024 µM; top dose inferred. How it is done:
as §1

Compound in experiment [4]: COCC[n+]1c2c(n(Cc3cnccn3)c1C)C(=O)c1ccccc1C2=O [YM155]
The note with it: top dose 5.12 µM. As for the experimental part:
as §1

Compound in experiment [5]: C[C@]1(O)C[C@@H](c2nc(-c3ccc4ccc(-c5ccccc5)nc4c3)c3c(N)nccn32)C1 [OSI-906]
The following applies: top dose 2.56 µM; top dose inferred. As for the experimental part:
as §1

Compound in experiment [6]: Cc1ccc(C(=O)N(CCCN)[C@@H](c2nc3cc(Cl)ccc3c(=O)n2Cc2ccccc2)C(C)C)cc1 [SB-715992]
The following applies: top dose 0.128 µM; top dose inferred. As for the experimental part:
as §1

Compound in experiment [7]: Cc1sc2c(c1C)C(c1ccc(Cl)cc1)=N[C@@H](CC(=O)OC(C)(C)C)c1nnc(C)n1-2 [JQ1]
How it is done:
as §1

Compound in experiment [8]: O=C(/C=C/c1cccc(S(=O)(=O)Nc2ccccc2)c1)NO [Belinostat]
The following applies: top dose 20 µM; top dose inferred. As for the experimental part: as §1

Compound in experiment [9]: c1ccc2c(CCNc3ccc(Nc4ccncc4)cc3)c[nH]c2c1 [JNJ-26854165]
The note with it: top dose 10 µM. How it is done: as §1

The mark [10] stands for this setting: top dose 2.56 µM, screen: GDSC drug entry 163.
Where [11] appears, read: top dose 1 µM, screen: GDSC drug entry 1218, top dose inferred.

Turning to A2058 (melanoma, adherent), the AUC in experiment [1] is 0.495; in experiment [2], 0.949; in [3], 0.989; in [4], 0.151; in [5], 0.967; in [6], 0.629. For the same cell line, the AUC in experiment [7] (setting [10]) turned out to be 0.877; in experiment [8], 0.8; in experiment [9] it was 0.931. In addition, the IC50 in experiment [1] was 0.76 nM; in experiment [2] it was greater than 20000 nM; in experiment [3] it was greater than 1020 nM; in [4], 31.6 nM; in experiment [5], greater than 2560 nM; in experiment [6], 17.4 nM. The half-maximal inhibitory concentration (IC50) in [7] (setting [10]) is 2100 nM; in experiment [8], 8490 nM; in experiment [9], greater than 10000 nM.

Turning to ABC-1 (lung adenocarcinoma, adherent), the AUC came to 0.885 in experiment [1]; 0.837 in experiment [2]; 0.951 in [3]; 0.035 in experiment [4]; 0.725 in experiment [5]; 0.811 in [6]. For the same cell line, the AUC in experiment [7] (setting [11]) was found to be 0.979; in experiment [7] (setting [10]), 0.737; in experiment [8], 0.508; in experiment [9], 0.877. Also, the IC50 is greater than 12.5 nM in experiment [1]; 17500 nM in [2]; greater than 1020 nM in experiment [3]; less than 20 nM in [4]; 809 nM in [5]; 85.9 nM in experiment [6]. Also, the IC50 is greater than 1000 nM in experiment [7] (setting [11]), 888 nM in [7] (setting [10]), 1320 nM in [8] and greater than 10000 nM in experiment [9].

As for ACHN (kidney, adherent), the AUC was 0.9 in experiment [1]; 0.945 in experiment [2]; 0.954 in experiment [3]; 0.188 in experiment [4]; 0.983 in experiment [5]; 0.948 in [6]. Further, the AUC in experiment [7] (setting [11]) came to 0.977; in [7] (setting [10]), 0.748; in [8] it was 0.543; in [9], 0.844. Further, the IC50 was greater than 12.5 nM in experiment [1]; greater than 20000 nM in experiment [2]; greater than 1020 nM in experiment [3]; 31.6 nM in experiment [4]; greater than 2560 nM in experiment [5]; greater than 128 nM in [6]. Besides, the half-inhibitory concentration (IC50) in experiment [7] (setting [11]) is greater than 1000 nM; in experiment [7] (setting [10]) it was 926 nM; in experiment [8], 1660 nM; in experiment [9], 8690 nM.

In the case of CAKI-1 (kidney, adherent), the AUC was found to be 0.865 in [1]; 0.971 in [2]; 0.932 in experiment [3]; 0.758 in experiment [4]; 0.88 in experiment [5]; 0.91 in [6]. For the same cell line, the AUC came to 0.956 in experiment [7] (setting [11]), 0.467 in [7] (setting [10]), 0.419 in experiment [8] and 0.822 in experiment [9]. The IC50 in experiment [1] is greater than 12.5 nM; in experiment [2], greater than 20000 nM; in experiment [3], greater than 1020 nM; in experiment [4], 2660 nM; in experiment [5] it was greater than 2560 nM; in experiment [6], greater than 128 nM. In addition, the IC50 was greater than 1000 nM in experiment [7] (setting [11]), 125 nM in experiment [7] (setting [10]), 672 nM in experiment [8] and greater than 10000 nM in experiment [9].

Consider “DMS-53 (small cell lung carcinoma, adherent)”, for which the AUC in experiment [1] worked out at 0.988; in [2], 0.988; in experiment [3] it was 0.988; in experiment [4], 0.808; in experiment [5], 0.949; in experiment [6] it was 0.988. Also, the AUC was determined as 0.815 in [8] and 0.951 in experiment [9]. For the same cell line, the IC50 in [1] was greater than 12.5 nM; in experiment [2], greater than 20000 nM; in experiment [3], greater than 1020 nM; in experiment [4] it was 2890 nM; in experiment [5], greater than 2560 nM; in [6] it was greater than 128 nM. Further, the values for the half-maximal inhibitory concentration (IC50) in experiment [8] and in experiment [9] were 12000 nM and greater than 10000 nM, respectively.

On to Daoy (medulloblastoma, adherent), for which the AUC in [1] came to 0.54; in experiment [2], 0.949; in experiment [3], 0.968; in experiment [4], 0.021; in experiment [5], 0.935; in [6], 0.622. The AUC was 0.984 in experiment [7] (setting [11]), 0.63 in [7] (setting [10]), 0.143 in experiment [8] and 0.848 in experiment [9]. Moreover, the IC50 was 0.993 nM in experiment [1]; greater than 20000 nM in experiment [2]; greater than 1020 nM in [3]; less than 20 nM in [4]; greater than 2560 nM in [5]; 16.8 nM in [6]. For the same cell line, the IC50 was greater than 1000 nM in experiment [7] (setting [11]), 351 nM in [7] (setting [10]), 113 nM in [8] and 6430 nM in experiment [9].

For the cell line EFM-19 (breast, adherent), the AUC in experiment [1] was 0.568; in experiment [2] it was 0.904; in [3] it was 0.91; in [4], 0.091; in experiment [5], 0.901; in experiment [6] it was 0.941. Further, the AUC is 0.964 in experiment [7] (setting [11]), 0.702 in [7] (setting [10]), 0.491 in [8] and 0.945 in [9]. For the same cell line, the IC50 in [1] was 1.32 nM; in experiment [2], greater than 20000 nM; in experiment [3] it was greater than 1020 nM; in experiment [4] it was less than 20 nM; in experiment [5] it was greater than 2560 nM; in experiment [6] it was greater than 128 nM. Also, the IC50 is greater than 1000 nM in [7] (setting [11]), 806 nM in experiment [7] (setting [10]), 1170 nM in [8] and greater than 10000 nM in [9].
